Source: paper PMC5436638
These are yes or no findings as the source states them, for the method shown. In cells and extracts the contact can be indirect. Some entries that bind do so weakly or less than the wild type.

Chains of the proteins cited; added tags and fusions are not shown. Lines headed by an entry give the natural chain unless they say otherwise; changes in a name come on top. A line that says so, or that is headed by a name, gives the form on record, which may keep a tag or linker. Residues count along the entry.
UniProt P17542: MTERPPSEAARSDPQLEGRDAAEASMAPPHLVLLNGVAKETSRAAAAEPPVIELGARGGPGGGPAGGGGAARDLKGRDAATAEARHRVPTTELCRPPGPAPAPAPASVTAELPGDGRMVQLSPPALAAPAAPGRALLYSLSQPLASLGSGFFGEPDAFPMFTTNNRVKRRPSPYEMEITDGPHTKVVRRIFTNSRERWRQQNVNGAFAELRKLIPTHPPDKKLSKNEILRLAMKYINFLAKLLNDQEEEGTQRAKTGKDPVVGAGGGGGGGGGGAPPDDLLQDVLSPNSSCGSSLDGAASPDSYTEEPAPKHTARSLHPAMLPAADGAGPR
Flag-tagged TAL1 short form (TAL1s), stable K562 line: residues 176-331 of P17542
UniProt O75533: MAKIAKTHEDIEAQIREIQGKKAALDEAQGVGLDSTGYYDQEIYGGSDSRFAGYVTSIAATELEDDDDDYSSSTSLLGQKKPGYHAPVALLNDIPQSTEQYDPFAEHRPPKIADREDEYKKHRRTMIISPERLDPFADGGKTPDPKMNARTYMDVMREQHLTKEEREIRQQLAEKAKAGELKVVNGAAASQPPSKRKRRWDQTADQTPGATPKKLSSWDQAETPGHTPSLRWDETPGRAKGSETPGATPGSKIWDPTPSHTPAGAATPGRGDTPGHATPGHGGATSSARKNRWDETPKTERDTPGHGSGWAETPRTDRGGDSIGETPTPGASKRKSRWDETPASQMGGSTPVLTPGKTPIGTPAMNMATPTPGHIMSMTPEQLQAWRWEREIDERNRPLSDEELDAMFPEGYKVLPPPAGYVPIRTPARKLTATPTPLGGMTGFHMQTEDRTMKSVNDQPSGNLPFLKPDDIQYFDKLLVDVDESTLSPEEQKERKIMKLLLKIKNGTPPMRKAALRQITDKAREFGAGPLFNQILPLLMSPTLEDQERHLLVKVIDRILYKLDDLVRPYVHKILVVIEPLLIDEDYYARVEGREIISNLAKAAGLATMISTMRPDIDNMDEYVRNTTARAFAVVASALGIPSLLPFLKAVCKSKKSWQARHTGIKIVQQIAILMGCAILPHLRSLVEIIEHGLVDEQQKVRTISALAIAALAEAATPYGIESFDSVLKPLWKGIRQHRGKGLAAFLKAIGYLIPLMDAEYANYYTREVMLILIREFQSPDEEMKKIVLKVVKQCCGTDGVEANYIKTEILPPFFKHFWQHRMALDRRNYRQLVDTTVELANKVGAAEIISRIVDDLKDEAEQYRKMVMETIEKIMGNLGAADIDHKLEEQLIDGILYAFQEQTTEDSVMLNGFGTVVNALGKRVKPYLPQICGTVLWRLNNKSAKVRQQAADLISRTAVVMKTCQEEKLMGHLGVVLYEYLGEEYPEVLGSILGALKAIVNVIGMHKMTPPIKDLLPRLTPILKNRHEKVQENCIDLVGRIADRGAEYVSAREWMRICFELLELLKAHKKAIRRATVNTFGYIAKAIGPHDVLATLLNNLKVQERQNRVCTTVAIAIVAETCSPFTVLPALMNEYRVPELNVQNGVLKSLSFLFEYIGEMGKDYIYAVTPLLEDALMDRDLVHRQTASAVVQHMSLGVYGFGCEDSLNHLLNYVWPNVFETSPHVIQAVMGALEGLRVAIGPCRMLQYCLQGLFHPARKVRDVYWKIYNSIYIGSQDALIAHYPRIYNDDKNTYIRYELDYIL

What was measured:
[1] = target: Flag-tagged full-length TAL1 (T-cell Acute Lymphocytic Leukemia Protein 1) (human) (UniProt P17542); test: co-IP; 293T cells transfected with plasmids expressing ETO2 and Flag-tagged TAL1 proteins; immunoprecipitation with Flag antibody, western blot
[2] = target: Flag-tagged TAL1 short form (TAL1s) (human) (UniProt P17542); test: as above
[3] = target: Flag-tagged full-length TAL1 (T-cell Acute Lymphocytic Leukemia Protein 1), stable K562 line (human) (UniProt P17542); test: co-IP; K562 stable cell lines expressing Flag-tagged TAL1s or Flag-TAL1fl; immunoprecipitation with Flag antibody, ETO2 detected by anti-ETO2 antibody
[4] = target: Flag-tagged TAL1 short form (TAL1s), stable K562 line (human) (UniProt P17542); test: as above
[5] = target: Flag-tagged splicing factor 3b subunit 1 (SF3B1), wild type (human) (UniProt O75533); test: co-IP; Flag-tagged SF3B1 wild type or K700E overexpressed in K562 cells; immunoprecipitation with Flag antibody, RBM15 detected by western blot with anti-RBM15 antibody
[6] = target: Flag-tagged splicing factor 3b subunit 1 (SF3B1) K700E mutant (human) (UniProt O75533); test: as above

B1: ETO2 (protein, UniProt O75081 1-653)
chain: MPASRLRDRAASSASGSTCGSMSQTHPVLESGLLASAGCSAPRGPRKGGPAPVDRKAKASAMPDSPAEVKTQPRSTPPSMPPPPPAASQGATRPPSFTPHTHREDGPATLPHGRFHGCLKWSMVCLLMNGSSHSPTAINGAPCTPNGFSNGPATSSTASLSTQHLPPACGARQLSKLKRFLTTLQQFGSDISPEIGERVRTLVLGLVNSTLTIEEFHSKLQEATNFPLRPFVIPFLKANLPLLQRELLHCARLAKQTPAQYLAQHEQLLLDASASSPIDSSELLLEVNENGKRRTPDRTKENGSDRDPLHPEHLSKRPCTLNPAQRYSPSNGPPQPTPPPHYRLEDIAMAHHFRDAYRHPDPRELRERHRPLVVPGSRQEEVIDHKLTEREWAEEWKHLNNLLNCIMDMVEKTRRSLTVLRRCQEADREELNHWARRYSDAEDTKKGPAPAAARPRSSSAGPEGPQLDVPREFLPRTLTGYVPEDIWRKAEEAVNEVKRQAMSELQKAVSDAERKAHELITTERAKMERALAEAKRQASEDALTVINQQEDSSESCWNCGRKASETCSGCNAARYCGSFCQHRDWEKHHHVCGQSLQGPTAVVADPVPGPPEAAHSLGPSLPVGAASPSEAGSAGPSRPGSPSPPGPLDTVPR
B1 was tested, and the binding [1] was “binds” and the binding [2] was “no binding”.

B2: ETO2 in K562 cells (protein, UniProt O75081 1-653)
chain: B1 chain
In the case of B2, the binding [3] is reported as “binds” and the binding [4] is reported as “no binding”.

B3: RBM15 (RNA Binding Motif Protein 15) in K562 cells (protein, UniProt Q96T37 1-977)
chain: MRTAGRDPVPRRSPRWRRAVPLCETSAGRRVTQLRGDDLRRPATMKGKERSPVKAKRSRGGEDSTSRGERSKKLGGSGGSNGSSSGKTDSGGGSRRSLHLDKSSSRGGSREYDTGGGSSSSRLHSYSSPSTKNSSGGGESRSSSRGGGGESRSSGAASSAPGGGDGAEYKTLKISELGSQLSDEAVEDGLFHEFKRFGDVSVKISHLSGSGSGDERVAFVNFRRPEDARAAKHARGRLVLYDRPLKIEAVYVSRRRSRSPLDKDTYPPSASVVGASVGGHRHPPGGGGGQRSLSPGGAALGYRDYRLQQLALGRLPPPPPPPLPRDLERERDYPFYERVRPAYSLEPRVGAGAGAAPFREVDEISPEDDQRANRTLFLGNLDITVTESDLRRAFDRFGVITEVDIKRPSRGQTSTYGFLKFENLDMSHRAKLAMSGKIIIRNPIKIGYGKATPTTRLWVGGLGPWVPLAALAREFDRFGTIRTIDYRKGDSWAYIQYESLDAAHAAWTHMRGFPLGGPDRRLRVDFADTEHRYQQQYLQPLPLTHYELVTDAFGHRAPDPLRGARDRTPPLLYRDRDRDLYPDSDWVPPPPPVRERSTRTAATSVPAYEPLDSLDRRRDGWSLDRDRGDRDLPSSRDQPRKRRLPEESGGRHLDRSPESDRPRKRHCAPSPDRSPELSSSRDRYNSDNDRSSRLLLERPSPIRDRRGSLEKSQGDKRDRKNSASAERDRKHRTTAPTEGKSPLKKEDRSDGSAPSTSTASSKLKSPSQKQDGGTAPVASASPKLCLAWQGMLLLKNSNFPSNMHLLQGDLQVASSLLVEGSTGGKVAQLKITQRLRLDQPKLDEVTRRIKVAGPNGYAILLAVPGSSDSRSSSSSAASDTATSTQRPLRNLVSYLKQKQAAGVISLPVGGNKDKENTGVLHAFPPCEFSQQFLDSPAKALAKSEEDYLVMIIVRGFGFQIGVRYENKKRENLALTLL
In the case of B3, the binding [5] is reported as “binds” and the binding [6] is reported as “binds”.
